# Assay results from PubChem BioAssay (NCI).
# “And” between values parts separate entries of the source, which are not always exact repeats. Equal values may be shown once.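 Protocol summary: plate cells (96-well), add compound at 5 concentrations, incubate 48 h, interpolate endpoints linearly. Here, GI50 denotes the concentration required for 50% inhibition of growth. TGI marks complete inhibition of growth.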 Square brackets hold non-standard residues; d marks the D form. Peptide text beside a SMILES is read from it. * marks the point of attachment. Phe(4-NO2) = N[CH](Cc1ccc([N+](=O)[O-])cc1)C(=O)O; Boc = CC(C)(C)OC(=O)*; OtBu = CC(C)(C)O*
# Test system: NCI-H322M lung
# Experiment: NCI-60 cell line screen, 48 h
SMILES,TGI [µM],GI50
O=C(Nc1nc2ncn(CCNCCn3cnc4nc(NC(=O)c5ccccc5)[nH]c(=O)c43)c2c(=O)[nH]1)c1ccccc1,> 100,–
O=C(O)CSc1ccc2[nH]c3ccccc3c(=O)c2c1,> 100,–
O=c1[nH]c2ccc(C(F)(F)F)cc2nc1Cc1ccccc1,> 100,–
COC(=O)C1CCC(NC(=O)c2csc([C@@H](C[C@H](C(C)C)N(C)C(=O)[C@@H](NC(=O)[C@H]3CCCCN3C)C(C)C)OC(C)=O)n2)CC1 (some centres not stated),> 33.3,0.007 µM and 0.0136 µM
O=C1C(=C/C=C2/SC(c3ccccc3)(c3ccccc3)c3ccccc32)C(=O)c2ccccc21,> 100,–
NC(=O)c1c2c(n3ccccc13)C(=O)c1ccccc1C2=O,> 100,–
CNN1C(=O)c2c(N)c(C#N)c(-c3ccccc3)c(-c3ccccc3)c2C1=O,> 100,–
CCc1c2c(nc3ccc(OC(=O)NCc4ccc(B5OC(C)(C)C(C)(C)O5)cc4)cc13)-c1cc3c(c(=O)n1C2)COC(=O)[C@]3(O)CC,7.05,0.113 µM
CCCCN(C(=O)c1ccccc1)C1CCC(=O)c2[nH]c3ccccc3c21 (configuration not stated),> 100,–
N#C/C(=C/c1ccco1)C(=O)c1ccccc1,> 100,–
CC(=O)NC(CCC(=O)OC(C)(C)C)C(=O)NC(CCC(=O)OC(C)(C)C)C(=O)NC(Cc1ccc([N+](=O)[O-])cc1)C(=O)NC(CCCCNC(=O)OC(C)(C)C)C(=O)NC(CCCCNC(=O)OC(C)(C)C)C(=O)NCC(=O)O (configuration not stated) (Ac-E(OtBu)E(OtBu)[Phe(4-NO2)]K(Boc)K(Boc)G-OH; configuration not given here),> 100,–
N#CC(NCCc1ccccc1)c1ccccc1 (configuration not stated),> 100,–
O=C(O[C@H]1CN[C@H](C#Cc2cc3ncnc(Nc4ccc5c(cnn5Cc5ccccc5)c4)c3s2)C1)N1CCOCC1,> 10.8,0.35 µM
CC1(C)COC2(OC1)C1=NS(=O)(=O)CC13CCC2C3(C)C (configuration not stated),> 100,–
CC1=NN(c2cccc(Cl)c2)C2(SCC(=O)N2c2nc3ccccc3s2)/C1=C\c1ccccc1 (configuration not stated),70.1,–
O=C(/C=C/c1c(O)ccc2ccccc12)c1ccccc1Cl,78.3,–
c1ccc2c(c1)c(N1CCCCC1)cc1nc3c(cc(N4CCCCC4)c4ccccc43)nc12,> 100,–
COc1ccc2c(c1)CN1C(=N2)CSC1c1c(Cl)cccc1[N+](=O)[O-] (configuration not stated),> 100,–
N/C(=N/N=C/c1cc(Br)cc(Br)c1O)NO,26.8,–
COc1cc(-c2cc(/C=C/C(=O)c3ccc(N)cc3)[nH]n2)cc(OC)c1OC,5.59,2.23 µM

SMILES,TGI [µM],GI50
CCOCc1cc(=O)c2c(O)cc3c(c2o1)CCC(C)(C)O3,> 100,–
CCOC(=O)C1=C(N)CCC1C (configuration not stated),> 100,> 100 µM
Oc1ccccc1N=Cc1c(O)ccc2ccccc12,45.5,13.6 µM
COP1(=O)OCc2cnccc2O1 (configuration not stated),> 100,–
CCCCCC(/C=C/C1CCC(=O)C1)OCOCCOC (configuration not stated),> 100,–
CCOC(=O)C(NC(=O)CC)(Nc1ccc(S(=O)(=O)Nc2ncccn2)cc1)C(F)(F)F (configuration not stated),> 100,–
Cc1c(Cl)ccc2c1NC(=O)C2(O)CC(=O)c1ccc2ccccc2c1 (configuration not stated),> 100,–
Cc1ccc(S(=O)(=O)NC2=NCCN2C(=S)SN2CCn3c2nsc3=S)cc1,46.1,15.1 µM
COc1ccc2cc(C(=O)Nc3ccc(O)c(C(=O)O)c3)ccc2c1OC,> 100,–
Cc1cc2cc3c(Cl)c(CCCl)c(C)nc3cc2c(Cl)c1CCCl,81.7,–
CCN(CC)CCNc1ccc2ncn3c4ccccc4c(=O)c1c23,14.4,–
N/N=C(/Cc1ccccc1)NNC(N)=S,> 100,–
COc1ccc(C(=O)n2nc(/C=C/c3ccc(O)c(OC)c3)cc2/C=C/c2ccc(O)c(OC)c2)cc1,10.5,1.29 µM
CC(C)OP(=O)(OC(C)C)C([CH2][Sn]([CH3])([CH3])[Cl])P(=O)(OC(C)C)OC(C)C,81.4,26.1 µM
O=S(=O)(O)c1ccc(N=Nc2ccc(N=Nc3c(O)ccc4ccccc34)c(S(=O)(=O)O)c2)cc1,> 100,–
O=C(c1ccc(Cl)c(Cl)c1)N(Cc1cccnc1)C(=S)N(Cc1cccnc1)C(=O)c1ccc(Cl)c(Cl)c1,83.1,–
Cc1ccc(NCCN2CCCCC2)c2c(=O)c3ccccc3sc12,11.4,2.17 µM
CC(NC(=O)OC(C)(C)C)C(=O)NC(Cc1ccccc1)C(=O)NCC(=O)O (stereo not drawn) (Boc-Ala-Phe-Gly-OH; configuration not given here),> 100,–
CCCCCc1cc2cc3c(c(O)c2c(=O)[nH]1)C1(CC3)C(O)=c2c(=O)c3c(=O)cc(OC)c(=O)c=3c(=O)c2=C1O (configuration not stated),6.07,–
O=C(O)c1c(-c2ccccc2)c(=O)[nH]c2ccccc12,> 100,–

SMILES,TGI [µM],GI50
O=C1OC(c2cccc(C(F)(F)F)c2)c2ccc3ccccc3c21 (configuration not stated),> 100,> 100 µM
COc1ccc2nc(C)cc(NCCCCCCCCCNc3cc(C)nc4ccc(OC)cc34)c2c1,11.6,–
CN(C)c1ccc(/C=c2/c3ccccc3n3c2cc(-c2ccc(Cl)cc2)[n+]3C)cc1,1.65,–
Cc1cc2c(c(C)c1O)C(C)(C)CN2C(=O)C(C)(C)C,> 100,–
COc1ccc(/C=C2\N=C(SC)N(C)C2=O)cc1,> 100,–
COc1ccc(NC(=S)N=Nc2c(O)[nH]c3ccccc23)cc1,> 100,–
O=c1n(N=S(=O)(c2ccccc2)c2ccccc2)c(=O)n2n1C1C=CC2CC1,> 100,–
O=C(/C=C(\N=P(c1ccccc1)(c1ccccc1)c1ccccc1)C(F)(F)C(F)(F)C(F)(F)C(F)(F)C(F)(F)C(F)(F)C(F)(F)F)c1ccccc1,> 100,–
N#Cc1c(N)nc(NCc2ccccc2)c(C#N)c1-c1ccc(Cl)cc1,85.9,19.1 µM
COc1ccc(N=Nc2c(O)ccc3ccccc23)cc1,> 100,–
O=C1C(=O)c2c(O)ccc(O)c2C(O)=C1Cl,> 100,–
O=c1c2c3c(sc2nc(CN2CCNCC2)n1-c1ccccc1)CCCC3,> 100,–
CCCCCCCCCCCc1noc2c1C(=O)C(O)CC2 (configuration not stated),> 100,–
CC(C)(C)c1cc(Cc2ccc([N+](C)(C)C)cc2)c(O)c(C(C)(C)C)c1,46.2,–
CCOC(=O)c1sc2nc(SC)nc(N3CCCCC3)c2c1N,> 100,–
CC1=c2c(oc3cc(O)c(Nc4c(C)cc(O)cc4O)c(C)c23)=CC(=O)C1=Nc1c(C)cc(O)cc1O,> 100,–
C[C@H](O)CNc1cc(-c2[nH]c3cccnc3c2-c2ccc(F)cc2)ccn1,> 25,> 17.2 µM
CCCN1C(=O)/C(=C/c2cccc(O)c2)SC1=Nc1ccc(OC)cc1,10.7,3.64 µM
